Test results taken from the supplement of paper PMC11417369.
This is one part of the list.

These sequences were tested on PF3D7_0420300 AP2 domain 1 (GST-tagged) (assay: gcPBM binding intensity (ln(normalized median fluorescence intensity)); higher = stronger DNA binding).
Procedure, shortened: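 For binding intensity, the highest Masliner-normalised natural-log median intensity across replicate spots of either probe orientation was taken. Protein bound to the array was stained with Alexa488 anti-GST antibody and scanned at 488 nm. The protein, GST-tagged P. falciparum DNA-binding domains from E. coli at about 25 μg on average, had been applied for 1 h to an Agilent 4 × 180k array of primer-extended double-stranded 36-bp intergenic genomic probes and negative controls.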

Point of comparison: “GAAATTAAAAAATTTATGCACACTTTAAAAAAAAAA [CACACA_site3769]”, “gcPBM binding intensity (ln)” value 9.08. Against it:
- AAGGTGGAAACAATTACACACACACTAAAAAAAAAA [CACACA_site7493] — higher, 9.96
- ATATATATATATTTCGTGCACTGATAATATTATTTT — higher, 9.33
- ATGAAAAAAAATAAAAAATATATATATATATATATA [CACACA_negctrl_site236] — lower, 8.94
- AAACTTTTTTTAAAAACACACATATAGATTTATATA [CACACA_site7842] — higher, 9.21
- TAGTTTTTTATATATTGTACAAATGATATATTATAT [XGTACX_site1002] — higher, 9.23
- TATTTTTAAACAAAACTGTATTTATTTTTTAAAATT [CACACA_negctrl_site1449] — lower, 8.84
- TTTTGTTATTTTTGTATGCACTACATATTATTATAT — higher, 9.59
- ATATATATATATAATTGTACATTTTTATGTTTTATA [XGTACX_site4560] — higher, 9.41
- TTCATTAAAATTATTACACACAGTTCTTCAACCAAA [CACACA_site3504] — higher, 9.31
- ATATGTAGTTTTTATTGTACGTGTAGAAGAAATAAT [XGTACX_site6608] — higher, 9.43
- AATGATTTTCAATCGAAATGAAACTTAGAAGATATA [CACACA_negctrl_site1475] — lower, 9.01
- TTTTAAACAGGACACACACACATATAGATTTATATA [CACACA_site6560] — higher, 9.93
- TTTAAAATAACCAAAAACAAAAAGAAACACAAATGT [GTGCAC_negctrl_site705] — higher, 9.8
- TTTCAAATGGAATGTGTGCACATAAATGTAAATAAA — higher, 9.49
- GATCAAATAGAAAATACATGCAATGTGTGAAATAAC [TGCATGCA_site835] — higher, 9.74
- AAAAAAAAAATTTACTGTACACATTTGGGATACTCA [XGTACX_site5191] — lower, 8.98
- CTTATTTAATGTATCACACACGAGAATAAAAAATAA [CACACA_site3020] — higher, 9.43
- TATAAGTTGATATATACACACATATATAAATATGTA [CACACA_site7526] — higher, 9.31
- TATTTATAAAAATATACACACATACAAATATGCATA [CACACA_site4555] — higher, 9.44
- ATGGTTTTCAGAAAAACATGCATACAATAATAAAAA [TGCATGCA_site815] — lower, 9
- AATTAATATATAAATAATAAAAAAAAATATATAAAC [XGTACX_negctrl_site280] — higher, 9.5
- GAACGAAATAAGTGTGTGCACATGTAACCACAAATC [GTGCAC_site9829] — higher, 10
- CAATATTTTCATAGATGTACTTTGGACTTATTATAT [XGTACX_site4849] — lower, 9.05
- TAAATAAAAGATACGAGTACGTATGATGTTAACCTC [XGTACX_site8840] — higher, 9.42
- GTATATAGTATGTAGAGTACTAATTTCCATATGTTC [XGTACX_site7816] — higher, 9.25
- ATTTATATATAGGTGTGTCCACAAATAGTATGTAAA [XGTACX_site2916] — higher, 9.36
- ATTTGTATATACATATGTACACATGTAGGCTCATAA [XGTACX_site1709] — higher, 9.19
- TTTCGTAAACTTTATGCACACACATATACATATTTC [CACACA_site8146] — higher, 9.8
- TTTGAATACTGAATGGTGCAAATTGTTCTCCCCATG — lower, 9.04
- AGTATAACTTTTGCGCGTACACACATTTATCCTCTT [XGTACX_site429] — higher, 9.9
- TATATTAAAATAATCACACACATCAATTAATGGTAA [CACACA_site1234] — higher, 9.44
- TATAATAATATTTACACACGCATATGTTATATATAT [CACACA_site1477] — higher, 9.52
- TGTATATGGTTTGTGCAAAAATTTATTAATGTGTAA [TGCATGCA_negctrl_site374] — higher, 9.26
- TACAAATGCGTATGTCAATATATGGAGAAATAAATA [TGCATGCA_negctrl_site290] — higher, 9.16
- GTTATAATTGAACTAGTGCATAAATATATTTTAATT [GTGCAC_site9851] — higher, 9.17
- AATTCTGGCAAAATAACACACACATATATTTTATAT [CACACA_site9064] — higher, 9.71
- TATCTTTTTTTTAATACACACAAATATATGAAAGTA [CACACA_site4161] — higher, 9.29
- ATATAAACACTGAATGCATGCACATATATATATATA [TGCATGCA_site940] — higher, 9.74
- ATAAAGGAATTTTATACACACAACATATATATATAT [CACACA_site2861] — higher, 9.57
- TTTTTTTTTACTAACTGTACTAAAGAAAAAAAAGGG [XGTACX_site3519] — lower, 9.04
- ATGTGTATATGTGTGGGTACTTAATTTTTTTCTTTA [XGTACX_site5351] — higher, 9.53
- CGTATTATTATATAAACACACAAGGGGGCATGTATA [CACACA_site745] — higher, 9.96
- AAAAAAAAAAAAAAAAGTACATATAATAAATAATGA [XGTACX_site7931] — higher, 9.27
- TATATCTTAATATTTACACACATGCGCACCCATAAA [CACACA_site5349] — higher, 9.64
- AATCTTTGTAATAAAAGTACATTAATTTTATTAATA [XGTACX_site8325] — lower, 8.93
- ACACATACAACGTGGTGTACAAATAATTATAATCAA [XGTACX_site2287] — higher, 9.24
- TAAGTATATATATTTACACACATTTGTTTTTTTTTA [CACACA_site3784] — higher, 9.59
- TTTTAAATACTTTATTGTACATTATATATATATATA [XGTACX_site7021] — higher, 9.25
- TGAAAAATATAAGGTTGTACTTACATCGGGAATAAT [XGTACX_site4701] — higher, 9.45
- AATTATGTGTGTCAATGTACACGATTTACATAATAT [XGTACX_site5150] — higher, 9.49
- AATATATGGTTTCTTGATATTAAATTCAATTTAATG [CACACA_negctrl_site69] — higher, 9.19
- ATCCGTGGGTGAAATACACACATGATAATGTGAATG [CACACA_site4662] — higher, 9.34
- ATAAATGAACAAGTGGCACACACACCGTATAACTAA [CACACA_site9047] — higher, 9.82
- TATTTTTAATTTTTTAATGGTTTAATATTTTTATAT [CACACA_negctrl_site1186] — higher, 9.19
- TGGTATGCAATATTGGTGCGTATATATTTTAAAGGG — higher, 9.2
- TATTCTAAGATAAGTGGTACTTATATATAATATATA [XGTACX_site8316] — higher, 9.16
